# In all, about 310,000 compounds went through this assay and about 2,200 (0.71%) showed an effect of 50% or more. Effects have a minus sign here. The list shows a part of the results.
# Target: human ether-à-go-go-related gene (hERG) potassium channel (human, UniProt Q12809)
# Assay: primary screen, population patch clamp on CHO cells stably expressing hERG
# Sequence of human ether-à-go-go-related gene (hERG) potassium channel (Q12809 whole entry, looked up): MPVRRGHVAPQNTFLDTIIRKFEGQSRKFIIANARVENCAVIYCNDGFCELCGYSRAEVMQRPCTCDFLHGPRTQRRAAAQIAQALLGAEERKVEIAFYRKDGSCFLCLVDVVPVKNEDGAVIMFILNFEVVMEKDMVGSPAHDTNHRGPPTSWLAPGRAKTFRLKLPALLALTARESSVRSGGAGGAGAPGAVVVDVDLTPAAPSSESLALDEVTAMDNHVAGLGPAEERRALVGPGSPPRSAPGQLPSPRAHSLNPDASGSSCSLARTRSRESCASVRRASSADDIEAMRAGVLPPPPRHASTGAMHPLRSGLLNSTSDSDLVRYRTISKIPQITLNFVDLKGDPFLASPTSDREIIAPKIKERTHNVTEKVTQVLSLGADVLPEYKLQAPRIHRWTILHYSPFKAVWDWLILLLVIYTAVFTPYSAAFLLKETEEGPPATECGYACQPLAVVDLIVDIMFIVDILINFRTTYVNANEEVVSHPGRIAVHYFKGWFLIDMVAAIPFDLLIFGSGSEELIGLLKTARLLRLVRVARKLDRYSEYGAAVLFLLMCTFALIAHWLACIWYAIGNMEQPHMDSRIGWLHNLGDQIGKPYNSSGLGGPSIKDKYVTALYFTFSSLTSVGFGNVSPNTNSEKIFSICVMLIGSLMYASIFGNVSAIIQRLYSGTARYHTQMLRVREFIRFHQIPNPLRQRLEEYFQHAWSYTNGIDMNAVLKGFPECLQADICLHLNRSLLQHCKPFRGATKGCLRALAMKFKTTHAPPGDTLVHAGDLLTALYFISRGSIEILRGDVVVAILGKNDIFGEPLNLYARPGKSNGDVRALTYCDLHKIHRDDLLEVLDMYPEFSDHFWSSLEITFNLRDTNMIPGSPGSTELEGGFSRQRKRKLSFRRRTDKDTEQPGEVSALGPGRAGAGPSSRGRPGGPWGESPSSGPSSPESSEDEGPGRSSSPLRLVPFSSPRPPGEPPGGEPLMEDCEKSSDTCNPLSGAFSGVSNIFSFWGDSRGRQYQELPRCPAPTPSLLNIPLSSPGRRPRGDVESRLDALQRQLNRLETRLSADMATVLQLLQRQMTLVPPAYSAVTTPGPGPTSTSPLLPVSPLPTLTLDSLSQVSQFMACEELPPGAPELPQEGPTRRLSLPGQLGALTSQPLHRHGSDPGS
row,Compound,"hERG current change (%, negative = inhibition) at 1uM [%]"
1,COc1ccc(CNc2ccc(C)c(C)c2)cc1,7.13
2,O=C(NCCN1CCN(C(=O)c2cccs2)CC1)c1cccs1,-8.64
3,CCN1CCN(c2ccc(NC(=O)c3cc(S(=O)(=O)N4CCCC4)ccc3Cl)cc2)CC1,-10.2
4,O=C(CSCc1ccc(Cl)cc1)N1CCOCC1,10.3
5,O=C(CCCCCN1C(=O)c2cccc3cccc(c23)C1=O)N1CCOCC1,3.08
6,COC(=O)c1ccc2[nH]c3c(c2c1)CC(C)CC3 (centres unmarked),18.2
7,O=C(CSc1nc(-c2ccccc2)cc(C(F)(F)F)n1)NCc1cccs1,14.5
8,Cc1ccc(NC(=O)CCNS(=O)(=O)c2cccc3nsnc23)cc1,5.86
9,CC(=O)Nc1nonc1NC(=O)c1ccc(F)cc1,24.6
10,CCN1CCCn2c1nc1c2c(=O)n(C)c(=O)n1C,7.15
11,O=c1c2c3c(sc2nc2n1CCCCC2)C(O)CCC3 (centres unmarked),5.61
12,Cc1cc(-c2cc(C(=O)NC3CCCC3)on2)nc(NCC2CC2)n1,11
13,Cn1c(=O)c2c(nc(NC(Cc3ccccc3)C(=O)O)n2Cc2ccccc2)n(C)c1=O (centres unmarked),5.44
14,COc1ccc(Nc2nc(N)nc(CSCCO)n2)cc1,-2.77
15,COC(=O)CN(c1ccccc1)S(=O)(=O)c1cc(Br)ccc1OC,9.19
16,CCOCCCNC(=O)c1cc(=O)n(Cc2cccc(C)c2)c2ccccc12,5.29
17,O=C(OCN1C(=O)c2ccccc2C1=O)c1cccs1,16
18,COc1ccc(OC)c(NC(=O)CSc2nnc(-c3cnccn3)n2C)c1,8.8
19,COc1cccc(C(=O)N2CCC(C(=O)NCc3ccco3)CC2)c1,-43.2
20,Cc1ccc(-c2c(C)sc3nc(CN4CCN(CC(=O)NC5CC5)CC4)[nH]c(=O)c23)cc1,-12.7
21,Cc1cc(=O)n2[nH]c(C)c(-c3ccccc3)c2n1,12.5
22,OCCCn1c(CCNc2nc(-c3ccc(Cl)cc3)cs2)nc2cc(C(F)(F)F)ccc21,10.9

row,Compound,"hERG current change (%, negative = inhibition) at 1uM [%]"
1,O=c1[nH]c2ccc(Cl)cc2c(-c2ccccc2)c1N1CCN(c2ccccn2)CC1,11.9
2,Cc1ccc(S(=O)(=O)Oc2ccc(/C=N/NC(=O)c3nn(C)cc3Cl)cc2)cc1,6.53
3,C=CCN(C(=O)CCc1ccccc1OC)c1nc(-c2ccc(S(C)(=O)=O)cc2)cs1,11.6
4,CC(C)C(C)NC(=O)COC(=O)c1cc(S(=O)(=O)N(C)C)ccc1N1CCCC1 (centres unmarked),13
5,COc1ccc(/C=N/NC(=O)C2C3CCCCC32)cc1OC (centres unmarked),9.38
6,COc1cccc(C(C(=O)NC(C)(C)C)N(CCc2ccccc2)C(=O)CCC(=O)Nc2cc(C)on2)c1OC (centres unmarked),11.8
7,COc1ccc(NC(=O)CSc2n[nH]c(C)c2[N+](=O)[O-])cc1,10.8
8,O=C(CCN1C(=O)c2ccc([N+](=O)[O-])cc2C1=O)Nc1cccc(O)c1,11
9,CCCCOc1ccc(NC(=O)C(=O)NCCC2=CCCCC2)cc1,9.57
10,CCC(=O)Nc1cccc(-c2cn3ccsc3n2)c1,15.1
11,COc1ccccc1CNC(=O)CN1C(=O)c2ccc([N+](=O)[O-])cc2C1=O,12.4
12,COc1cc(NC(=O)c2ccccc2-c2ccccc2)cc(OC)c1,-8.83
13,O=C(c1ccco1)N(Cc1ccco1)c1ccc(O)cc1,16.5
14,COC(=O)C1CN(C(=O)COc2ccccc2C)c2ccccc2O1 (centres unmarked),10.4
15,Cc1ccc(C2SCC(C(=O)O)N2C(=O)c2ccc(F)cc2)cc1 (centres unmarked),8.81
16,Cc1c(Cl)cccc1NC(=O)C1CCN(S(C)(=O)=O)CC1,6.36
17,C[C@@]12C(=O)Nc3ccccc3C(=O)N1[C@H]1c3cc(Br)ccc3OC[C@@H]1[C@@H]2c1ccccc1,6.95
18,CCOC(=O)N1CCN(S(=O)(=O)c2ccc(OC)c(OC)c2)CC1,-11.4
19,COc1cccc(CN2CCN(Cc3ccc(C)o3)CC2CCO)c1 (centres unmarked),1.05
20,Cc1cc(C)n2nc(C(=O)Nc3c(C)nn(Cc4ccc(F)cc4)c3C)cc2n1,12
21,CCc1nn(CC(=O)NCCN2CCOCC2)c(=O)c2cc3c(OC)cccc3n12,11.9
22,CCCNC1=C(C)C(=O)CC1,15.9

# Reference: paper PMC4336329 (PLoS ONE, 2015)
